Data published in PubChem BioAssay AID651820 (National Center for Advancing Translational Sciences (NCATS), 2012).
Screen size: about 340,000 compounds; about 12,000 (3.5%) were called active. Inconclusive means that the source gave no clear call. Such entries were picked first, then a sample of the others. Calls come from the whole dose curve; as a rule, active = well fitted inhibition curve with a large enough effect; inconclusive = small, poorly fitted or top-dose-only effect, or another doubt; inactive = no such curve, though single readings can be large or run the other way. Potencies of inconclusive entries are left out as doubtful fits.

Test: qHTS Assay for Inhibitors of Hepatitis C Virus (HCV)
Conditions: Huh7.5.1 HCVcc-Cre (HCVcc is cell-culture hepatitis C virus) infection, luciferase reporter, 44 h; activity change, negative = inhibition: at 41.8 µM (top of the series) unless noted
How it was run: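 Infectious HCVcc-Cre (~0.5 moi) was added to cells just after compound, with cells seeded 4 h earlier at 1,000 per well. Luciferase activity after 44 h culture reported infection; substrate was incubated 15 min at room temperature before reading.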
% is set by controls: 0 for no effect and ±100 for the full control effect; potency is the fitted concentration of half-maximal effect; tags give direction and shape of the fitted curve.

SMILES	Potency	activity change, negative = inhibition
N#Cc1ccc(CSc2ccc(S(=O)(=O)N3CCCC3)cn2)cc1	inconclusive [inhibitor, single point]	–
COc1ccc(NC(=O)c2sccc2SCc2cccc(C(F)(F)F)c2)cc1	inconclusive [inhibitor, single point]	–
O=C(CN1C(=O)C2C3C=CC(C3)C2C1=O)Nc1cccc2c1CCCC2 (stereo unspecified)	inconclusive [inhibitor, single point]	–
CCCCn1c(N)c(N(CCC(C)C)C(=O)c2oc3ccc(OCC)cc3c2C)c(=O)[nH]c1=O	inconclusive [inhibitor, single point]	–
O=C(CN1CCN(S(=O)(=O)c2ccccc2F)CC1)NCC1(N2CCOCC2)CCCCC1	–	inactive: 5.74%
O=C(NCc1ccco1)c1ccccc1NC(=O)C1CC(=O)N(c2ccc(Cl)cc2)C1 (stereo unspecified)	–	inactive: -19.6%
Oc1cccc(C(O)CNCc2ccc(-c3ccccc3)cc2)c1 (stereo unspecified)	inconclusive [inhibitor, partial curve]	–
NS(=O)(=O)c1ccc(CCNC(=O)c2ccc(C#CC3(O)CCCCC3)cc2)cc1	inconclusive [inhibitor, partial curve]	–
COc1ccc(NC(=O)Nc2cc(C)ccc2OC(F)F)c(OC)c1	inconclusive [inhibitor, partial curve]	–
Cc1ccc2oc(-c3cccc(NC(=O)/C=C/c4cccc([N+](=O)[O-])c4)c3C)nc2c1	–	inactive: 0.156% [at 0.335 µM]
Cc1cc(C)cc(NC(=O)CCc2c(C)nn(-c3ccc(N4CCOCC4)nn3)c2C)c1	–	inactive: -9.29%
Cc1ccc(NC(=O)c2cccc(OC(F)F)c2)c(OC(F)F)c1	inconclusive [inhibitor, full curve]	–
CCOc1cc(NC(=S)NCCCN2CCOCC2)c(OCC)cc1NC(=O)C(C)C	–	inactive: -0.736%
CC(NC(=O)Cc1cccs1)c1ccccc1 (stereo unspecified)	–	inactive: -0.619%
CN1CCN(c2ccc([N+](=O)[O-])cc2C(=O)c2ccc(Br)cc2)CC1	–	inactive: -23.7%
CC1(c2ccc(Cl)cc2)NC(=O)N(CC(=O)NCc2ccc(F)cc2)C1=O (stereo unspecified)	–	inactive: 7.35%
CC1CCN(c2ccc3nnc(CCC(=O)NCc4ccco4)n3n2)CC1	–	inactive: 16.5%
CCCNC(=O)Cn1c2ccccc2c2nc(=O)cc(C)n21	–	inactive: 23.4%
CCN(CC)S(=O)(=O)c1cc([N+](=O)[O-])ccc1N=Nc1c(O)[nH]c2ccccc12	inconclusive [inhibitor, single point]	–
COc1cccc(/C=C/C(=O)NCc2ccc3c(c2)OCO3)c1	–	inactive: -9.86%
O=[N+]([O-])c1ccc(N=Nc2ncc[nH]2)cc1	inconclusive [inhibitor, single point]	–
COc1ccc(NC(=O)CN2CCC(C(=O)c3ccc(F)cc3)CC2)c(OC)c1	–	inactive: -14.6%
COc1cc(C2NC(=O)NC(C)=C2C(=O)OC2CCCC(C)C2)ccc1O (stereo unspecified)	–	inactive: 9.64%
CC1=[N+](C)c2ccc3ccccc3c2C1(C)C	inconclusive [inhibitor, partial curve]	–
Cc1cc(Cl)ccc1NC(=S)NCc1ccccc1	inconclusive [inhibitor, partial curve]	–
N#C/C(=C/c1ccc(N2CCCCCC2)o1)c1ccc(Cl)cc1	inconclusive [inhibitor, single point]	–

SMILES	Potency	activity change, negative = inhibition
N#C/C(=C\c1ccc(F)cc1)c1nc(-c2ccco2)cs1	inconclusive [inhibitor, full curve]	–
Cc1ccc(C)c(S(=O)(=O)N2CCN(C(=O)[C@H](Cc3ccccc3)NC(=O)c3ccco3)CC2)c1	–	inactive: -2.42%
O=C(NCc1cccnc1)c1cc2nc(-c3cccs3)cc(C(F)(F)Cl)n2n1	inconclusive [inhibitor, single point]	–
O=C(NC(=O)c1ccccc1F)Nc1nc(-c2cccs2)cc(C(F)(F)F)n1	inconclusive [inhibitor, single point]	–
CCOc1cc(C=O)cc(Br)c1OCC(=O)NCCc1ccccc1	inconclusive [inhibitor, single point]	–
CCC(=O)NC(=S)Nc1ccc(NC(=O)c2ccccc2[N+](=O)[O-])cc1	inconclusive [inhibitor, single point]	–
O=C(C[C@@H]1C/C=C\CCCC(=O)OC[C@@H]2CCCN2C1=O)N[C@@H](CO)Cc1ccccc1	–	inactive: 10.6%
OC(CNCc1cccnc1)COc1ccc2ccccc2c1 (stereo unspecified)	–	inactive: 12.7%
O=C(c1cccc(S(=O)(=O)N2CCN(c3ccccc3)CC2)c1)N1CCCC(C(F)(F)F)C1 (stereo unspecified)	inconclusive [inhibitor, partial curve]	–
CCOc1ccc(C(=O)NCC(=O)OCCCOC(=O)CNC(=O)c2ccc(OCC)cc2)cc1	–	inactive: 7.2%
CCC(=O)N(CCC(Cc1ccccc1)c1ccco1)Cc1ccco1 (stereo unspecified)	inconclusive [inhibitor, single point]	–
COc1ccc(CNC/C=C/c2ccccc2)cc1	inconclusive [inhibitor, single point]	–
O=C(Cc1ccccc1)N1CCN(Cc2ccccc2Cl)CC1	–	inactive: 3.9%
CCOC(=O)c1c(C)nc2ccc(C)cn12	inconclusive [inhibitor, partial curve]	–
COc1cc(NC(C)CCCN)c2ncccc2c1Oc1ccccc1 (stereo unspecified)	active: 7.94 µM	–
Cc1ccc(Cn2nc(C)c(C(=O)NCC(c3ccc(F)cc3)N3CCOCC3)c2Cl)cc1 (stereo unspecified)	inconclusive [inhibitor, single point]	–
CCc1nc2ccc(C(=O)N3CCN(c4cccc(Cl)c4)CC3)cc2nc1CC	inconclusive [inhibitor, partial curve]	–
COc1cccc(-c2nc(CS(=O)CC(=O)NCc3ccc(F)cc3)c(C)o2)c1 (stereo unspecified)	–	inactive: -6.07%
COC(=O)c1cc2c(-c3ccccc3)c(C)c3ccccn3c-2c1C(=O)OC	inconclusive [inhibitor, partial curve, poor fit]	–
N/C(=N\OC(=O)C12CC3CC(CC(C3)C1)C2)c1ccccc1	active: 5.01 µM	–
O=C(c1cc(Cl)ccc1Cl)N1CCc2ccccc21	inconclusive [inhibitor, single point]	–
O=S(=O)(c1ccc(Cl)cc1)N1CCN(C(=S)Nc2ccccc2F)CC1	–	inactive: 3.39%
CC(Oc1ccccc1Cl)C(=O)Nc1ccc(S(=O)(=O)N2CCCC2)cc1 (stereo unspecified)	inconclusive [inhibitor, single point]	–
COc1ccc(NC(=O)c2ccccc2OCc2c(C)noc2C)cc1OC	inconclusive [inhibitor, partial curve]	–
O=C(COc1ccccc1Cl)N1N=C(c2cccs2)CC1c1ccco1 (stereo unspecified)	–	inactive: -14.1%
NS(=O)(=O)c1ccc(CCNCC(=O)N2CCC(Cc3ccccc3)CC2)cc1	active: 11.2 µM	–

SMILES	Potency	activity change, negative = inhibition
Cc1cc(C)c2cc(C#N)c(N3CCCN(C(=S)NCCCN(C)C)CC3)nc2c1	active: 11.2 µM	–
Cc1nc2scc(-c3ccccc3)c2c(=O)n1/N=C/c1ccco1	inconclusive [inhibitor, partial curve, poor fit]	–
O=Cc1cn(Cc2ccc(Br)cc2)c2ccccc12	–	inactive: 0.92%
O=C(c1ccco1)N1CCN(C(c2ccc(Cl)cc2)c2nnnn2Cc2ccccc2)CC1 (stereo unspecified)	–	inactive: -15.1%
CCn1c(=NC(=O)c2ccco2)sc2cccc(F)c21	inconclusive [inhibitor, partial curve]	–
COc1ccc(Cc2nc(-c3ccc(-n4cccc4)cc3)no2)cc1OC	active: 10 µM	–
CCCc1cc(N2CCCC2)n2nc(C)c(-c3ccccc3)c2n1	inconclusive [inhibitor, full curve, poor fit]	–
CCCNC(=O)c1c(C)cc(=O)oc1C	–	inactive: 6.58%
COc1ccc(C)cc1NC(=O)/C=C/c1ccc(OC)c(S(=O)(=O)N2CCOCC2)c1	inconclusive [inhibitor, partial curve]	–
CCN(Cc1ccccc1)C(=O)c1cc2cc(OC)c(OC)cc2[nH]1	–	inactive: -16.5%
COc1ccc(-c2cc(-c3ccccc3)nc(NN)n2)cc1OC	inconclusive [inhibitor, partial curve]	–
CCOc1nc(NCCO)nc(NCCC2=CCCCC2)n1	–	inactive: -9.84%
COC(=O)c1cc(S(=O)(=O)NCC2CCN(CCc3ccc(OC)cc3)CC2)c[nH]1	–	inactive: -7.59%
CN(c1ccccc1)S(=O)(=O)c1cccc(NC(=O)CSc2n[nH]c(N)n2)c1	inconclusive [inhibitor, single point]	–
O=C(CNC(=O)c1ccc(Cl)cc1)N/N=C/c1cccnc1	–	inactive: 2.18%
O=[N+]([O-])c1ccc(N/N=C/c2cn(Cc3ccc(F)cc3)c3ccccc23)nc1	–	inactive: 9.07%
COc1ccc(NC(=O)CN2C(=O)/C(=C3\SC(=S)N(C4CCS(=O)(=O)C4)C3=O)c3ccccc32)cc1 (stereo unspecified)	–	inactive: -8.65%
CC(Nc1nc(-c2ccc(F)cc2)cs1)c1nc2cc(C(F)(F)F)ccc2n1CCOCCO (stereo unspecified)	–	inactive: 1.25%
CC(=O)Oc1cc(C(C)C)c(OCCN(C)C)cc1C	inconclusive [inhibitor, single point]	–
O=C(OCc1cc(Cl)ccc1OC(F)F)c1cncc(Br)c1	–	inactive: -5.43%
O=C(Nc1ccccc1C(F)(F)F)N1CCCCCC1	–	inactive: 20.5%
COc1ccc(NC(=O)NNC(=O)c2ccccc2-n2cccc2)cc1OC	–	inactive: 5.22%
CCC(=O)Nc1ccc(/C(C)=N/NC(=O)c2c(-c3ccccc3Cl)noc2C)cc1	–	inactive: -13.1%
Cc1c(/C=N/Nc2nc3ccccc3[nH]2)c2ccccc2n1C	inconclusive [inhibitor, single point]	–
